{"source": "PubChem BioAssay AID686979", "about": "(National Center for Advancing Translational Sciences (NCATS), 2013)", "note": "Hit rate of the full screen: of about 420,000 compounds, about 50,000 (12%) were called active. The shares of active, inactive and inconclusive entries below differ from those in the screen. The call rests on the fitted dose curve; in most records, active means well fitted inhibition curve with a large enough effect; inconclusive means small, poorly fitted or top-dose-only effect; inactive means flat fitted curve, though single readings scatter. No potency is given beside an inconclusive call; the fits are too rough. On the % scale 0 is the no-effect control and ±100 the full control effect; potency means the concentration at half of the fitted maximal effect; tags describe the fitted curve by direction and shape.", "data": [{"assay": "qHTS for Inhibitors of human tyrosyl-DNA phosphodiesterase 1 (TDP1): qHTS in cells in presence of CPT; further: nearly all actives have a fitted effect of over 55% in size", "details": "chicken DT40 Tdp1-/-;hTDP1 cells + 20 nM CPT, ATP luminescence, 48 h; activity change, negative = growth inhibition: at 46.2 µM (top of the series) unless noted", "how_it_was_run": "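Chicken DT40 Tdp1-/- cells complemented with human TDP1, 400 cells/well, exposed to compounds plus 20 nM camptothecin for at least 48 h at 37 C; viability read as ATP content by CellTiter-Glo luminescence.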", "values": [{"compound": "Cc1ccc(C(=O)OCN2C(=O)c3ccccc3C2=O)c(O)c1", "activity change, negative = growth inhibition": "inactive: 6.91%"}, {"compound": "S=C(Nc1ccccc1)N1CCCCC1", "activity change, negative = growth inhibition": "inactive: 6.01%"}, {"compound": "O=C1[C@H](c2ccccc2)[C@@H](c2ccccc2)N1c1ccncc1", "Potency": "active: 14.6 µM"}, {"compound": "O=C1CCCN1CCCN=c1c([N+](=O)[O-])nn(-c2ccc(Cl)cc2)n1O", "Potency": "active: 3.26 µM"}, {"compound": "O=C(/C=C(\\c1ccc(Cl)cc1)n1cncn1)c1ccc(Cl)cc1", "Potency": "inconclusive [inhibitor, partial curve]"}, {"compound": "COC(=O)[C@@]12CCCN1[C@H](c1ccc(-c3ccc(Cl)c(Cl)c3)cc1)[C@H]1C(=O)N(C)C(=O)[C@H]12", "Potency": "inconclusive [inhibitor, single point]"}, {"compound": "Cc1ccc(S(=O)(=O)NCC(=O)OC(C)C(=O)NC2CCCCC2C)cc1C", "note": "(stereo not given)", "activity change, negative = growth inhibition": "inactive: -15.6%"}, {"compound": "Cc1ccc(S(=O)(=O)Nc2ccc(O)c3ccccc23)c(C)c1", "Potency": "active: 3.66 µM"}, {"compound": "CCOC(=O)c1cc(-c2ccc(OC)c(S(=O)(=O)NCc3ccccc3Cl)c2)on1", "Potency": "inconclusive [inhibitor, single point]"}, {"compound": "O=C(Cc1ccc(Cl)cc1)Nc1ccc(Br)cn1", "activity change, negative = growth inhibition": "inactive: -1.06%"}, {"compound": "CC(C)(C)C(=O)Nc1ccc(-c2cn3ccsc3n2)cc1", "Potency": "active: 14.1 µM"}, {"compound": "CC(=O)c1cccc(NC(=O)Nc2ccc(C(=O)N3CCOCC3)cc2)c1", "activity change, negative = growth inhibition": "inactive: -19.2%"}, {"compound": "COc1ccccc1[C@]1(C)ON(c2ccccc2C(F)(F)F)C1=O", "Potency": "active: 25.9 µM"}, {"compound": "CN1C(=O)C2(Oc3ccccc3C3CC(c4ccccc4)=NN32)c2ccccc21", "note": "(stereo not given)", "Potency": "active: 23.1 µM"}, {"compound": "O=C(CCC(=O)c1ccc(Oc2ccccc2)cc1)Nc1ccc(Cl)cc1Cl", "Potency": "inconclusive [inhibitor, partial curve, poor fit]"}, {"compound": "COc1cc(OC)c(OC)cc1/C=C/C(=O)c1ccc(NS(=O)(=O)c2ccc(C)cc2)cc1", "Potency": "inconclusive [inhibitor, single point]"}, {"compound": "CCn1cc(C(=O)NC(=S)Nc2ccccc2[N+](=O)[O-])cn1", "activity change, negative = growth inhibition": "inactive: -9.3%"}, {"compound": "CC(=O)c1ccc(OCc2cc(C(=O)N3CC[C@@H]4CCCC[C@H]4C3)no2)cc1", "Potency": "inconclusive [inhibitor, single point]"}, {"compound": "COc1ccc2c(c1OC)C(=O)N1N=C(c3ccc(O)cc3)CC21", "note": "(stereo not given)", "Potency": "inconclusive [inhibitor, single point]"}, {"compound": "O=C1C2C3c4ccccc4C(c4ccccc43)[C@@H]2C(=O)N1c1ccccn1", "note": "(stereo not given in full)", "Potency": "inconclusive [inhibitor, single point]"}, {"compound": "CC1Cc2nc(SCC(=O)N3CCCCC3)n(C)c(=O)c2S1", "note": "(stereo not given)", "activity change, negative = growth inhibition": "inactive: -3.58%"}, {"compound": "CCSc1ccc2nnc(-c3ccc(F)cc3)n2n1", "Potency": "inconclusive [inhibitor, single point]"}, {"compound": "CCc1sc(C(=O)NCc2cc(C)n(C)n2)cc1Br", "Potency": "inconclusive [inhibitor, partial curve]"}, {"compound": "O=C(c1nc2ccccn2c1CN1CCC(Cc2ccccc2)CC1)N1CCCC1", "Potency": "inconclusive [inhibitor, single point]"}, {"compound": "Cc1ccc(NC(=O)c2ccc(NCCCN3CCC(C)CC3)c([N+](=O)[O-])c2)cc1F", "Potency": "active: 4.61 µM"}, {"compound": "C=CCn1c(SCC(=O)NCCc2ccccc2)nnc1C(C)NC(=O)c1cccs1", "note": "(stereo not given)", "activity change, negative = growth inhibition": "inactive: -5.63%"}, {"compound": "Cc1ccc(SCC(=O)c2c(C)[nH]c3ccccc23)cc1", "activity change, negative = growth inhibition": "inactive: 17.7%"}, {"compound": "COc1ccc2cc(CCl)c(Cl)nc2c1", "Potency": "inconclusive [inhibitor, single point]"}, {"compound": "COc1ccccc1NC(=O)CSc1ccc(-c2ccc(-n3cccn3)cc2)nn1", "Potency": "inconclusive [inhibitor, partial curve, poor fit]"}, {"compound": "C/C(=N/NC(=O)c1cccs1)c1cccc(N)c1", "Potency": "inconclusive [inhibitor, single point]"}, {"compound": "CC1=C(C(=O)N2CCCCCC2)CC(CC(=O)NCc2cccc3ccccc23)C(=O)N1CCC1=CCCCC1", "note": "(stereo not given)", "Potency": "inconclusive [inhibitor, single point]"}, {"compound": "CCN(CC)S(=O)(=O)c1cccc(NC(=O)COc2ccc(Cl)cc2Br)c1", "Potency": "inconclusive [inhibitor, single point]"}, {"compound": "O=C(O)c1cccc(S(=O)(=O)NCCc2ccccc2)c1", "Potency": "inconclusive [inhibitor, single point]"}, {"compound": "CCc1ccc(NC(=O)Nc2ccccc2OCc2cc(=O)n3ccccc3n2)cc1", "Potency": "inconclusive [inhibitor, single point]"}, {"compound": "COc1cc(OC)c(-c2cc(C(=O)O)ccc2OC)c(OC)c1", "activity change, negative = growth inhibition": "inactive: 1.66%"}, {"compound": "CS(=O)(=O)N(Cc1ccccc1Cl)c1ccc(C(=O)NCc2ccccn2)cc1", "activity change, negative = growth inhibition": "inactive: -17.3%"}, {"compound": "CNC(=O)C[C@H]1C(=O)N(C2CCCCC2)C[C@@H]1C", "activity change, negative = growth inhibition": "inconclusive: -32.5% [inhibitor]"}, {"compound": "COC(=O)c1ccc(Cl)c(NC(=O)NC23CC4CC(CC(C4)C2)C3)c1", "Potency": "active: 23.1 µM"}, {"compound": "CCOC(=O)c1ccccc1NC(=O)CSc1nnc(Cc2cccn2C)n1-c1ccc(F)cc1", "Potency": "inconclusive [inhibitor, partial curve]"}, {"compound": "CCCCC(=O)Nc1ccc(C(=O)OC2CCCCC2)cc1", "Potency": "inconclusive [inhibitor, single point]"}, {"compound": "CC(=O)Nc1c(O)c2cccc3c2n(c1=O)CCC3", "activity change, negative = growth inhibition": "inactive: 9.98%"}, {"compound": "CCOC(=O)C1(Cc2ccccc2C)CCCN(C(=O)CCc2cccnc2)C1", "note": "(stereo not given)", "Potency": "active: 16.4 µM"}, {"compound": "O=C1c2ccccc2S(=O)(=O)N1CC1CC(c2ccccc2Cl)=NO1", "note": "(stereo not given)", "activity change, negative = growth inhibition": "inactive: -11.1%"}, {"compound": "CSCCC(C(=O)Nc1c(C)cccc1C)n1c(-c2ccc(C(F)(F)F)cc2)nc2ccccc21", "note": "(stereo not given)", "activity change, negative = growth inhibition": "inactive: -4.85%"}, {"compound": "CN(CCCCCCN(C)Cc1ccccc1O)Cc1ccccc1O", "Potency": "inconclusive [inhibitor, single point]"}, {"compound": "NC(=O)C12CCCC(Br)(CCC1)C2", "activity change, negative = growth inhibition": "inactive: 16.6%"}, {"compound": "COc1ccc(OC)c(-c2noc(N3CCN(c4ccc(C(C)=O)cc4)CC3)n2)c1", "Potency": "inconclusive [inhibitor, single point]"}, {"compound": "Cc1ccc(S(=O)(=O)N2c3cc(C)ccc3OCC2C(C)(C)C)cc1", "note": "(stereo not given)", "Potency": "inconclusive [inhibitor, single point]"}, {"compound": "CCOC(=O)c1c(NC(=O)CCCOc2ccc(Cl)cc2)sc2c1CCC2", "activity change, negative = growth inhibition": "inactive: -11.1%"}, {"compound": "COc1ccc(C(=O)C2CCN(C(=O)Nc3ccccc3C)CC2)cc1", "activity change, negative = growth inhibition": "inactive: 4.08%"}, {"compound": "O=S(=O)(NCCN1CCOCC1)c1cc(Cl)c(Cl)cc1Cl", "activity change, negative = growth inhibition": "inactive: -13.8%"}, {"compound": "COc1ccc(CNC(=O)c2ccc(NC(=O)N3CCSc4ncccc43)cc2)cc1OC", "activity change, negative = growth inhibition": "inactive: -10.9%"}, {"compound": "N=c1n(CC(=O)c2cccs2)c2ccccc2n1Cc1ccccc1", "Potency": "active: 16.4 µM"}, {"compound": "COc1ccc(CNC(=O)c2sc(=O)n(Cc3ccc(-c4ccccc4)cc3)c2C)cc1OC", "Potency": "active: 11.6 µM"}, {"compound": "Cc1ccc(S(=O)(=O)N(CC(=O)N=Nc2c(O)[nH]c3ccccc23)c2cccc(C)c2)cc1", "Potency": "inconclusive [inhibitor, single point]"}, {"compound": "Nc1n[nH]c(N)c1N=Nc1ccc2c(c1)OCO2", "Potency": "inconclusive [inhibitor, partial curve]"}, {"compound": "Cc1ccc(/C=N/NC(=O)c2c(C)nc3ccc(Br)cn23)cc1", "Potency": "active: 0.731 µM"}, {"compound": "O=C(/C=C/c1ccccc1O)c1ccco1", "Potency": "active: 18.4 µM"}, {"compound": "Cc1cc(C)nc(NS(=O)(=O)c2ccc(NC(=O)c3cc4c(=O)n5cccc(C)c5nc4n3C)cc2)n1", "Potency": "inconclusive [inhibitor, single point]"}, {"compound": "Cc1cnc(C(=O)Nc2cc(F)ccc2C)cn1", "Potency": "inconclusive [inhibitor, partial curve]"}, {"compound": "O=C(CN1C(=O)c2cccc3cccc1c23)Nc1ccccc1", "Potency": "inconclusive [inhibitor, single point]"}, {"compound": "CCCOc1cccc(C2C(C(=O)c3cccs3)=C(O)C(=O)N2Cc2cccnc2)c1", "note": "(stereo not given)", "Potency": "inconclusive [inhibitor, single point]"}, {"compound": "O=C(NC1CCCN(c2ccc(C(F)(F)F)cn2)C1)c1ccnc(Cl)c1", "note": "(stereo not given)", "Potency": "inconclusive [inhibitor, partial curve, poor fit]"}, {"compound": "Cc1nn(CC(=O)NC2CCS(=O)(=O)C2)c(C)c1S(=O)(=O)N(C)C", "note": "(stereo not given)", "activity change, negative = growth inhibition": "inactive: 8.18%"}, {"compound": "O=C1/C(=C/c2ccc([N+](=O)[O-])cc2)C=C(c2ccccc2)N1c1ccc(O)cc1", "Potency": "active: 5.17 µM"}, {"compound": "COc1cccc(CN(C(=O)c2ccc(C(C)(C)C)cc2)C2CCS(=O)(=O)C2)c1", "note": "(stereo not given)", "Potency": "inconclusive [inhibitor, single point]"}, {"compound": "O=C(NCCc1csc2nc(-c3ccccc3F)nn12)c1ccccc1C(F)(F)F", "Potency": "active: 7.31 µM"}, {"compound": "CN(Cc1ccccc1)C(=O)c1[nH]cnc1C(=O)Nc1ccccc1", "Potency": "inconclusive [inhibitor, single point]"}, {"compound": "Oc1ccc(O)c(C=NNC(=S)NC2CC3CC2C2C=CCC32)c1", "note": "(stereo not given)", "Potency": "active: 18.4 µM"}, {"compound": "COc1ccc(C(=O)Nc2ccncc2)c(OC)c1", "activity change, negative = growth inhibition": "inactive: 3.25%"}, {"compound": "Cc1cc(C(=O)NC2CCCCC2)c(C)o1", "Potency": "inconclusive [inhibitor, single point]"}, {"compound": "COc1ccc(C(=O)Nc2nnc(-c3cccs3)s2)cc1", "Potency": "active: 10.3 µM"}, {"compound": "COc1cc(C(=O)NCCCNc2ccc([N+](=O)[O-])cc2)cc(OC)c1OC", "Potency": "inconclusive [inhibitor, single point]"}, {"compound": "O=C1OCCN1C(=O)[C@H]1[C@H](c2ccc(Cl)cc2)C(c2cccc(Cl)c2)=NN1c1ccc(Br)cc1", "Potency": "inconclusive [inhibitor, single point]"}, {"compound": "Cc1cc(Nc2cccc(Br)c2)c2ccccc2n1", "Potency": "active: 5.8 µM"}]}]}
